# According to a collection of fitness landscapes (doi:10.1126/science.1257360):
# Some of the results follow.
# B1: PhoQ; a variant is named by its letters at X, in order, P23837 (parent)
# chain: MKKLLRLFFPLSLRVRFLLATAAVVLVLSLAYGMVALIGYSVSFDKTTFRLLRGESNLFYTLAKWENNKLHVELPENIDKQSPTMTLIYDENGQLLWAQRDVPWLMKMIQPDWLKSNGFHEIEADVNDTSLLLSGDHSIQQQLQEVREDDDDAEMTHSVAVNVYPATSRMPKLTIVVVDTIPVELKSSYMVWSWFIYVLSANLLLVIPLLWVAAWWSLRPIEALAKEVRELEEHNRELLNPATTRELTSLVRNLNRLLKSERERYDKYRTTLTDLTHSLKTPLXXLQXXLRSLRSEKMSVSDAEPVMLEQISRISQQIGYYLHRASMRGGTLLSRELHPVAPLLDNLTSALNKVYQRKGVNISLDISPEISFVGEQNDFVEVMGNVLDNACKYCLEFVEISARQTDEHLYIVVEDDGPGIPLSKREVIFDRGQRVDTLRPGQGVGLAVAREITEQYEGKIVAGESMLGGARMEVIFGRQHSAPKDE
# Variants of: B1
# Assay: enrichment ratio after two sorts for PhoP signalling (ratio (wild type AVST 3.29)); higher = more functional
# Details: with PhoP (E. coli)
row,Variant,enrichment ratio
1,EHVV,≤ 0.25
2,SLDF,≤ 0.25
3,ESFG,≤ 0.25
4,IGGL,≤ 0.25
5,KLGG,≤ 0.25
6,RSKR,≤ 0.25
7,GADP,≤ 0.25
8,TYCW,≤ 0.25
9,IWVN,≤ 0.25
10,KKVP,≤ 0.25
11,NHGQ,≤ 0.25
12,WRCY,≤ 0.25
13,REFL,≤ 0.25
14,HNAS,3.94
15,YAFE,≤ 0.25
16,WQCH,≤ 0.25
17,YEGC,≤ 0.25
18,IRWT,≤ 0.25
19,RQRF,≤ 0.25
20,ETVW,≤ 0.25
21,CYLY,≤ 0.25
22,LMWV,≤ 0.25
23,ANTT,2.07
24,QRYN,≤ 0.25

row,Variant,enrichment ratio
1,NGLS,≤ 0.25
2,ESTQ,≤ 0.25
3,DAMV,≤ 0.25
4,LTPS,≤ 0.25
5,LYMC,≤ 0.25
6,VWEP,≤ 0.25
7,VVED,≤ 0.25
8,VKGE,≤ 0.25
9,GQFC,≤ 0.25
10,PETA,≤ 0.25
11,YMQS,≤ 0.25
12,TYEG,≤ 0.25
13,KHYW,≤ 0.25
14,LEID,≤ 0.25
15,SHDA,≤ 0.25
16,DGHP,≤ 0.25
17,PWCY,≤ 0.25
18,ESVS,≤ 0.25
19,VMKI,≤ 0.25
20,RLVF,≤ 0.25
21,PKCI,≤ 0.25
22,IVID,≤ 0.25
23,GPHL,≤ 0.25
24,KGQD,≤ 0.25

row,Variant,enrichment ratio
1,FTPM,≤ 0.25
2,KHEC,≤ 0.25
3,RHKI,≤ 0.25
4,LTTC,≤ 0.25
5,VVCA,≤ 0.25
6,DVTC,≤ 0.25
7,RTAV,≤ 0.25
8,DMRH,≤ 0.25
9,DYSR,≤ 0.25
10,MPVV,≤ 0.25
11,EKNQ,≤ 0.25
12,FEPE,≤ 0.25
13,ATMG,16.2
14,DERS,≤ 0.25
15,KVAL,≤ 0.25
16,TWMS,≤ 0.25
17,ASPM,0.773
18,MPSD,≤ 0.25
19,IQTS,≤ 0.25
20,YKPG,≤ 0.25
21,HILQ,≤ 0.25
22,RRLF,≤ 0.25
23,HRID,≤ 0.25
24,QDRT,≤ 0.25

row,Variant,enrichment ratio
1,NHDC,≤ 0.25
2,NCFV,≤ 0.25
3,KVEP,≤ 0.25
4,YAEY,≤ 0.25
5,EVRS,≤ 0.25
6,LQYT,≤ 0.25
7,IDKY,≤ 0.25
8,WNCR,≤ 0.25
9,IRGM,≤ 0.25
10,LNSQ,≤ 0.25
11,REFA,≤ 0.25
12,SRTP,≤ 0.25
13,LDVA,≤ 0.25
14,RQTY,≤ 0.25
15,QFQF,≤ 0.25
16,FMVQ,≤ 0.25
17,MKAS,≤ 0.25
18,RRDT,≤ 0.25
19,YSLN,6.8
20,GEFF,≤ 0.25
21,YEGV,≤ 0.25
22,LEAI,1.92
23,QGTP,≤ 0.25
24,VACC,≤ 0.25

row,Variant,enrichment ratio
1,IEYG,≤ 0.25
2,MYSR,≤ 0.25
3,IHVK,≤ 0.25
4,RKTL,≤ 0.25
5,WRAF,1.01
6,LMIQ,≤ 0.25
7,DFKG,≤ 0.25
8,PYWN,≤ 0.25
9,SIIR,0.517
10,IGIP,≤ 0.25
11,KAPG,≤ 0.25
12,VCYL,≤ 0.25
13,FHML,≤ 0.25
14,MHWK,≤ 0.25
15,WDKF,≤ 0.25
16,GMLM,1.25
17,TMNE,≤ 0.25
18,GILL,18.2
19,YAGE,≤ 0.25
20,TFIK,0.398
21,DIIN,≤ 0.25
22,VQFQ,≤ 0.25
23,PALY,≤ 0.25
24,FALI,15.1

row,Variant,enrichment ratio
1,DAIV,≤ 0.25
2,AFAL,≤ 0.25
3,PSYI,≤ 0.25
4,GNNW,≤ 0.25
5,RPTF,≤ 0.25
6,KSMM,≤ 0.25
7,AKHT,≤ 0.25
8,PEHM,≤ 0.25
9,WPTC,≤ 0.25
10,FQHI,≤ 0.25
11,QEQV,≤ 0.25
12,WTCR,≤ 0.25
13,ALMR,≤ 0.25
14,LIWC,≤ 0.25
15,VRAG,≤ 0.25
16,YQPK,≤ 0.25
17,MNPF,≤ 0.25
18,ESIW,≤ 0.25
19,KSDQ,≤ 0.25
20,PWYL,≤ 0.25
21,REPK,≤ 0.25
22,NCKL,≤ 0.25
23,HNDK,≤ 0.25
24,YGKH,≤ 0.25

row,Variant,enrichment ratio
1,ECYC,≤ 0.25
2,APHE,≤ 0.25
3,NPDF,≤ 0.25
4,HRDN,≤ 0.25
5,AWST,≤ 0.25
6,WDSE,≤ 0.25
7,KDCV,≤ 0.25
8,YGET,≤ 0.25
9,TCEL,5.12
10,RTMV,≤ 0.25
11,TYHQ,≤ 0.25
12,EGKW,≤ 0.25
13,TWQQ,≤ 0.25
14,TEFC,14.4
15,IDQL,≤ 0.25
16,NIMV,0.418
17,GNCC,10.9
18,SKYL,≤ 0.25
19,THMP,≤ 0.25
20,DHRI,≤ 0.25
21,ERAW,≤ 0.25
22,PSNT,≤ 0.25
23,VIHC,≤ 0.25
24,PACK,≤ 0.25

row,Variant,enrichment ratio
1,MYYC,≤ 0.25
2,LRTI,≤ 0.25
3,PRMN,≤ 0.25
4,RCTH,≤ 0.25
5,VKFR,≤ 0.25
6,LCIP,≤ 0.25
7,LGKQ,≤ 0.25
8,YDMR,≤ 0.25
9,GWPA,≤ 0.25
10,DFEA,≤ 0.25
11,TYYI,≤ 0.25
12,GPAT,≤ 0.25
13,PHLM,≤ 0.25
14,RLKN,≤ 0.25
15,NYMT,≤ 0.25
16,ENNT,≤ 0.25
17,DSCC,≤ 0.25
18,EMVI,≤ 0.25
19,HFQY,≤ 0.25
20,SPMH,≤ 0.25
21,PRCW,≤ 0.25
22,HLTS,≤ 0.25
23,AQFC,≤ 0.25
24,SNDH,≤ 0.25

row,Variant,enrichment ratio
1,KRIP,≤ 0.25
2,EWGR,≤ 0.25
3,PWAG,≤ 0.25
4,VGVW,≤ 0.25
5,QALS,1.44
6,PLFW,≤ 0.25
7,TFFT,≤ 0.25
8,HRWW,≤ 0.25
9,PAAA,≤ 0.25
10,GNYI,≤ 0.25
11,EFCT,≤ 0.25
12,TYRM,≤ 0.25
13,SDSM,1.33
14,PCRK,≤ 0.25
15,TQYN,10.7
16,VWYW,≤ 0.25
17,HLTG,1.04
18,MDSA,≤ 0.25
19,LNHC,≤ 0.25
20,NYGA,≤ 0.25
21,CTPI,≤ 0.25
22,FIPA,≤ 0.25
23,EVYD,≤ 0.25
24,IHYP,≤ 0.25

row,Variant,enrichment ratio
1,GWET,≤ 0.25
2,TGPT,≤ 0.25
3,MHIE,≤ 0.25
4,DRHQ,≤ 0.25
5,VSGY,≤ 0.25
6,HVWK,≤ 0.25
7,AEAP,≤ 0.25
8,QNAF,≤ 0.25
9,ASGL,8.91
10,QFRV,≤ 0.25
11,LHIF,≤ 0.25
12,GICR,3.93
13,WSAL,≤ 0.25
14,QFNQ,≤ 0.25
15,RHAV,≤ 0.25
16,SQPF,≤ 0.25
17,KYFV,≤ 0.25
18,GEAH,3
19,VCNI,≤ 0.25
20,HACY,≤ 0.25
21,PITA,≤ 0.25
22,DQTC,≤ 0.25
23,TTSV,15.8
24,TLTC,8.89

row,Variant,enrichment ratio
1,ARGC,≤ 0.25
2,QEHF,≤ 0.25
3,FHCL,≤ 0.25
4,LPSQ,≤ 0.25
5,DKCS,≤ 0.25
6,IREW,≤ 0.25
7,YWLE,≤ 0.25
8,HMDF,≤ 0.25
9,ERYL,≤ 0.25
10,MYLC,≤ 0.25
11,KHYC,≤ 0.25
12,SKKM,≤ 0.25
13,YWIG,≤ 0.25
14,NPIT,≤ 0.25
15,YTPP,≤ 0.25
16,EFAQ,≤ 0.25
17,EGQV,≤ 0.25
18,ELKN,≤ 0.25
19,HCVP,≤ 0.25
20,WEAH,≤ 0.25
21,LGSI,0.432
22,YIML,0.331
23,QAFR,≤ 0.25
24,VEDG,≤ 0.25

row,Variant,enrichment ratio
1,WSEN,≤ 0.25
2,LVFD,≤ 0.25
3,ESGY,≤ 0.25
4,SADG,≤ 0.25
5,RKTH,≤ 0.25
6,PACY,≤ 0.25
7,KIAI,≤ 0.25
8,DKDP,≤ 0.25
9,VPQC,≤ 0.25
10,NEPP,≤ 0.25
11,RHDD,≤ 0.25
12,ACWE,≤ 0.25
13,LHCW,≤ 0.25
14,KDDS,≤ 0.25
15,AQGW,≤ 0.25
16,QDYG,≤ 0.25
17,PPWY,≤ 0.25
18,WDLP,≤ 0.25
19,ERFW,≤ 0.25
20,GKIL,2.81
21,PIPN,≤ 0.25
22,LRDA,≤ 0.25
23,DCSV,≤ 0.25
24,VSQQ,≤ 0.25

row,Variant,enrichment ratio
1,KGFD,≤ 0.25
2,NTLD,≤ 0.25
3,KKYK,≤ 0.25
4,EIHA,≤ 0.25
5,IETI,≤ 0.25
6,LIGE,≤ 0.25
7,MKAF,≤ 0.25
8,SCVI,1.87
9,MMSL,6.66
10,LECG,1.47
11,HCRH,≤ 0.25
12,TQDA,≤ 0.25
13,IMTL,≤ 0.25
14,FYPH,≤ 0.25
15,NKFY,≤ 0.25
16,CLFC,≤ 0.25
17,VHAP,≤ 0.25
18,MPKK,≤ 0.25
